Measured values taken from the RNAGym collection of RNA variant scans (doi:10.1093/nar/gkz1192).
Read counts are not given, so values of variants with three or more changes are uncertain.

B1: CPEB3 Ribozyme (parent)
chain: UAACAGGGGGCCACAGCAGAAGCGUUCACGUCGCAGCCCCUGUCAGAUUCUGGUGAAUCUGCGAAUUCUGCUGUAUAUCUC

Variants of: B1
Assay: self-cleavage, relative activity (ratio to wild type); higher = more cleavage; in vitro, sequencing
In short: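 CPEB3 self-cleaving ribozyme mutant libraries were made by rounds of error-prone PCR, barcoded, and transcribed in vitro with T7 RNA polymerase for 5 hours at 37°C. Cleavage occurred during transcription and a 15 min DNase I step before EDTA stop. RNAs were reverse transcribed with template switching and Illumina-sequenced, with DNA sequencing mapping barcodes to variants. Relative activity is the variant's cleaved/total read fraction divided by wild type's (minimum 5 reads), averaged across three batches.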

Variant | self-cleavage
A28G U31C A64G U67A U72C | 0.1
A28C A45G U60A | 0.28
U26C A57G U66C | 0.16
U26C U51C A64G U76C | 0.09
U26C A35G U54C C71U A77G | 0.23
U26C A35G U49C U80C | 1.03
U26C A57G G61A | 0.48
U26C A56G U72A | 0.25
U26C A35G U54C A75G | 1.03
U26C U48C U69C | 0.26
A28G A64G U67C | 0.41
A28C C32U C44A U69A U80C | 0.07
A28G A35G A64U | 0.74
U26C U60A U72C | 0.33
A28C A56U U76C | 0.19
U26C C32U U69A U72A | 0.1
U26G A47U U51C | 0.08
A28G A35G A56G | 0.83
U26C U43C G55C | 0.26
U26G U54C A56G | 0.1
U26C U58A C79U | 0.19
A28C U31C C38G U80C | 0.19
U26C U31C A56U U80C | 0.09
A28G C32G A47G U48C U60C | 0.02

Variant | self-cleavage
A28G A45U A77G | 0.23
U26C U41C U51A U54A A56G A65G | 0.12
C27A C38A G42A | 0.09
U26C G46A U48C U60C | 0.09
U26C A35U C40U U69C | 0.31
U26C U54C U69A A77U U80A | 0.12
U26C A45G A57U U66C U78C | 0.06
U26C C32A G36A | 0.13
U26C C44U G46A U49C | 0.2
U26C C37U U41A U67G U72C | 0.09
U26C U43A U66C | 0.2
U26C A47G U72C | 0.59
A28G U31C C59U A75C | 0.23
A28C U51A U60C | 0.35
U26C U54A U80A | 0.45
C27A U54C U58C | 0.05
A28G G30U U41G U48C | 0.11
U26C A64G U76C | 0.21
A28G A35G C39A U60A | 0.12
U26C U41C U54A U67A U72C | 0.24
A28C A45G A56G A77U | 0.13
U26G G33C U51A U60C A64U U69A U80C | 0.05
U26C U41A G73U | 0.31
C27U G30C C62G | 0.11

Variant | self-cleavage
U26C A56G A65G U80C | 0.08
U26C U41C U49A U51A | 0.24
C27U U31C A35G U54A U78C | 0.19
A28C G63U U80C | 0.62
A28G A56G C68A U74C | 0.14
U26C A65G U76C | 0.14
U26C G30A C40A A56U A64U U80C | 0.08
A28C A35U U51C | 0.12
A28G G33A A35G U41G | 0.12
U26C G33C G55U U60C | 0.1
U26C C34G A35G U48A U76A | 0.06
U26C G30A A56G U69C U80A | 0.14
A28G U31C C44A U74A | 0.1
U26C A45U C59G | 0.07
A28G A35U U60G | 0.06
A28G G33A U60A C62U A65G U69A U72C | 0.08
U26C U54A A77G U78C | 0.41
U26C U41A U48C A57U | 0.1
A28C A56G A64U | 0.15
U26C A35U U48C | 0.17
A28G A35U U48A | 0.12
A28G A35U C37A G42A A57U | 0.4
A28C U72A U74A | 0.53
A28G A45U A64G | 0.18

Variant | self-cleavage
A28G C39A U41G U74A | 0.46
U26C C39U G53C U78A | 0.22
A28G G46A U60C U66C U69C | 0.08
U26C A64G U78A | 0.56
A28C C29U U72G | 0.22
A28G G30U U43A A56U U78A | 0.06
U26C G33U A56U A77U | 0.31
A28G A65G U72A U78C | 0.08
A28G C59G U60A | 0.1
U26C U54C A56U U60C U76A U80C | 0.07
A28C C38A U48C U80C | 0.12
C27U U72G A75G | 0.22
A28G C39U U41C A57G C59A U60C | 0.14
U26G U41A A64G | 0.21
A28C C71A U80C | 0.36
U26C U43C U48C U58C | 0.08
U26G U49A U72A | 0.16
A28G C59A U67C U69C | 0.15
U26C A35U A64G | 0.17
A28C C29U A35U C38U U49A U60A A64U | 0.1
U26C A47U A56G C79U | 0.47
C27A U41A A64G U66C U76A | 0.07
U26C A47U U51C U60A | 0.11
U26C G33C U78C | 0.05

Variant | self-cleavage
A28G U41A A65G U67C C81G | 0.05
U26G C32A C68U U80C | 0.24
A28G A56G U60C | 0.32
C27A U41A A47G A56G U60C | 0.09
U26C U43C A56G A64G | 0.5
A28C U49A U51G U54C | 0.15
A28G U31A U41C U43C A64U U80C | 0.07
U26C U31C U41A C62U U66C A75G | 0.13
C27A U58A C79U | 0.24
U26C G46U U51A A75G | 0.13
A28G A57G U58C | 0.08
U26G U41C U72A A75U | 0.24
C27U U54A A65G G70U U72C | 0.13
A28G A45G C50A U72C | 0.06
A28G A35U U51A A64U | 0.11
U26C U43C U58C U60A | 0.1
U26C U31A U67A | 0.09
A28G A35U U43C U78G | 0.13
C27U U49C A64U U72C | 0.05
A28C G33A U48C U58C U60A A65G | 0.28
C27U A28G U41C G52A U54C U69A | 0.06
U26C G33C C40U | 0.11
U26C U43C U69C | 0.17
U26C U48G U74C | 0.38

Variant | self-cleavage
U26C C29U U76A U80C | 0.35
U26C C38U U41A U80C | 0.09
A28C U66C U72C | 0.18
C27U A28G A35C U54C A56U | 0.11
C27A C37U U67A | 0.16
U26C C39G A47U U69G | 0.05
A28G U31C A57U | 0.16
U26C U51C U67C U72C | 0.15
A28G A45U A64U A77U | 0.07
U26C A35G U54C A64U | 0.28
U26G A35G G42A | 0.08
C27U U41A G46U U49C | 0.24
A28G G42A U54A | 0.56
U26C C32A U69C | 0.06
A28G U31C U41A G53A A64U | 0.14
U26C U60A A64U | 0.11
U26C A45G U72A | 0.31
U26C G36A A45G U49C U51C A56G A75G | 0.06
U26C U41A G55U | 0.25
U26C C29G A45G U74A | 0.04
U26C U48A U54A | 0.1
A28G A57U A64G | 0.15
A28G A35G U54C U58A U78C | 0.5
U26C C27G A57G A64G | 0.23

Variant | self-cleavage
U26C U41A U43A G46U | 0.07
U26C U31A U41C A56U U66A U74C U78C | 0.06
A28G A56G A57C U60A U72G | 0.02
U26C U43A U72G | 0.27
A28C C39A U69A | 0.13
C27G U54C C81A | 0.28
U26C U49C A64U U67A | 0.08
U26C G30C U72G | 0.2
U26G A35G A45G U78C | 0.63
U26C A35U C62U | 0.16
U26G A57G U60A A77G | 0.11
U26C U31A A45U U60C | 0.15
U26C A47G G55A A56G U69A | 0.08
U26G G52C A57G C68U | 0.14
U26C A35U U49C A57G U72A U80C | 0.07
A28G A35U C38A | 0.24
A28G A45U C62U | 0.2
U26C U41A A77U | 0.24
U26C C38A A45G A57G | 0.13
A28C U72A U80C | 0.69
U26C G36C A56U U80A | 0.35
C27A A35G G52A U69C | 0.16
U26C U60C U76A U80C | 0.38
